# Test results from the supplement of paper PMC8728848.
# The list shows a part of the results.
# B1: Epa3 (Candida glabrata), Q6VBI8_CANGB (protein)
# chain: MGSSHHHHHHSSGLVPRGSHMNDLGFSLFEKRELSSQNPFGYPIGCSPQDVAIIPGLTMELYSYPIVSGTPPNCYDASYVDPEYPRTGYLKRKMVGKSTGVTGNLNYKYSVEKACMVKYGNLPAGYNYNEPLTVSNFTMILYGYFKAQTTGLHTFFVNADDLLYINFGAGNAFDCCKREDSKTKLGEYVAYDIWHVDSSKNKVSLFLEKDLYYPIRMFFNNIGKDSSLDLSFSVNGATDQISDFSGYLYSVPDQPDTCPAHIGYDTTCR
# Experiments:
# Test in all cases: glycan array binding signal (z-score within array); higher = stronger binding
# Settings in all cases: glycan notation: IUPAC condensed, linker removed
# Neu5Ac(a2-3)Gal = target: Neu5Ac(a2-3)Gal
# How it was run: (§1)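 Glycan array data were curated from 3228 arrays in the Consortium for Functional Glycomics database and kept only where the protein sequence was available. Glycan names were converted to IUPAC-condensed notation, and columns mapping to the same glycan were averaged. The binding signal is a within-array Z-score, averaged across arrays of the same protein sequence at different concentrations or buffers and across linkers. Negative Z-scores can be read as non-binding.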
# [1] = target: Neu5Ac(a2-3)Gal(b1-3)GalNAc
# How it was run: as §1
# [2] = target: Neu5Ac(a2-3)Gal(b1-3)GalNAc(b1-3)Gal(a1-4)Gal(b1-4)Glc
# How it was run: as §1
# [3] = target: Neu5Ac(a2-3)Gal(b1-3)GalNAc(b1-4)[Neu5Ac(a2-3)]Gal(b1-4)Glc
# How it was run: as §1
# [4] = target: Neu5Ac(a2-3)Gal(b1-3)GalNAc(b1-4)[Neu5Ac(a2-8)Neu5Ac(a2-3)]Gal(b1-4)Glc
# How it was run: as §1
# [5] = target: Neu5Ac(a2-3)Gal(b1-3)GalNAc6S
# How it was run: as §1
# [6] = target: Neu5Ac(a2-3)Gal(b1-3)GlcNAc
# How it was run: as §1
# [7] = target: Neu5Ac(a2-3)Gal(b1-3)GlcNAc(b1-2)Man
# How it was run: as §1
# [8] = target: Neu5Ac(a2-3)Gal(b1-3)GlcNAc(b1-2)Man(a1-3)[GlcNAc(b1-4)][Neu5Ac(a2-3)Gal(b1-3)GlcNAc(b1-2)Man(a1-6)]Man(b1-4)GlcNAc(b1-4)GlcNAc
# How it was run: as §1
# [9] = target: Neu5Ac(a2-3)Gal(b1-3)GlcNAc(b1-2)Man(a1-3)[Neu5Ac(a2-3)Gal(b1-3)GlcNAc(b1-2)Man(a1-6)]Man(b1-4)GlcNAc(b1-4)GlcNAc
# How it was run: as §1
# [10] = target: Neu5Ac(a2-3)Gal(b1-3)GlcNAc(b1-3)Gal(b1-3)GlcNAc
# How it was run: as §1
# [11] = target: Neu5Ac(a2-3)Gal(b1-3)GlcNAc(b1-3)Gal(b1-4)GlcNAc
# How it was run: as §1
# [12] = target: Neu5Ac(a2-3)Gal(b1-3)GlcNAc(b1-3)GalNAc
# How it was run: as §1
# [13] = target: Neu5Ac(a2-3)Gal(b1-3)GlcNAc(b1-4)Gal(b1-4)Glc
# How it was run: as §1
# [14] = target: Neu5Ac(a2-3)Gal(b1-3)GlcNAc(b1-6)GalNAc
# How it was run: as §1
# [15] = target: Neu5Ac(a2-3)Gal(b1-3)GlcNAc6S
# How it was run: as §1
# [16] = target: Neu5Ac(a2-3)Gal(b1-3)[Fuc(a1-4)]GlcNAc
# How it was run: as §1
# [17] = target: Neu5Ac(a2-3)Gal(b1-3)[Fuc(a1-4)]GlcNAc(b1-3)Gal(b1-3)[Fuc(a1-4)]GlcNAc
# How it was run: as §1
# [18] = target: Neu5Ac(a2-3)Gal(b1-3)[Fuc(a1-4)]GlcNAc(b1-3)Gal(b1-4)[Fuc(a1-3)]GlcNAc
# How it was run: as §1
# [19] = target: Neu5Ac(a2-3)Gal(b1-3)[GlcNAc(b1-6)]GalNAc
# How it was run: as §1
# [20] = target: Neu5Ac(a2-3)Gal(b1-3)[Neu5Ac(a2-6)]GalNAc
# How it was run: as §1
# [21] = target: Neu5Ac(a2-3)Gal(b1-3)[Neu5Ac(a2-6)]GlcNAc(b1-3)[Fuc(a1-3)[Gal(b1-4)]GlcNAc(b1-6)]Gal(b1-4)Glc
# How it was run: as §1
# [22] = target: Neu5Ac(a2-3)Gal(b1-3)]Neu5Ac(a2-3)Gal(b1-4)]GlcNAc
# How it was run: as §1
# Neu5Ac(a2-3)Gal(b1-4)Glc = target: Neu5Ac(a2-3)Gal(b1-4)Glc
# How it was run: as §1
# [23] = target: Neu5Ac(a2-3)Gal(b1-4)GlcNAc
# How it was run: as §1
# [24] = target: Neu5Ac(a2-3)Gal(b1-4)GlcNAc(b1-2)Man
# How it was run: as §1
# [25] = target: Neu5Ac(a2-3)Gal(b1-4)GlcNAc(b1-2)Man(a1-3)[GlcNAc(b1-4)][Neu5Ac(a2-3)Gal(b1-4)GlcNAc(b1-2)Man(a1-6)]Man(b1-4)GlcNAc(b1-4)GlcNAc
# How it was run: as §1
# [26] = target: Neu5Ac(a2-3)Gal(b1-4)GlcNAc(b1-2)Man(a1-3)[Neu5Ac(a2-3)Gal(b1-4)GlcNAc(b1-2)Man(a1-6)]Man(b1-4)GlcNAc(b1-4)GlcNAc
# How it was run: as §1
# [27] = target: Neu5Ac(a2-3)Gal(b1-4)GlcNAc(b1-2)Man(a1-3)[Neu5Ac(a2-3)Gal(b1-4)GlcNAc(b1-2)Man(a1-6)]Man(b1-4)GlcNAc(b1-4)[Fuc(a1-6)]GlcNAc
# How it was run: as §1
# [28] = target: Neu5Ac(a2-3)Gal(b1-4)GlcNAc(b1-2)Man(a1-3)[Neu5Ac(a2-6)Gal(b1-4)GlcNAc(b1-2)Man(a1-6)]Man(b1-4)GlcNAc(b1-4)GlcNAc
# How it was run: as §1
# [29] = target: Neu5Ac(a2-3)Gal(b1-4)GlcNAc(b1-2)[Neu5Ac(a2-3)Gal(b1-4)GlcNAc(b1-4)]Man(a1-3)[GlcNAc(b1-4)][Neu5Ac(a2-3)Gal(b1-4)GlcNAc(b1-2)[Neu5Ac(a2-3)Gal(b1-4)GlcNAc(b1-6)]Man(a1-6)]Man(b1-4)GlcNAc(b1-4)GlcNAc
# How it was run: as §1
# [30] = target: Neu5Ac(a2-3)Gal(b1-4)GlcNAc(b1-2)[Neu5Ac(a2-3)Gal(b1-4)GlcNAc(b1-4)]Man(a1-3)[GlcNAc(b1-4)][Neu5Ac(a2-3)Gal(b1-4)GlcNAc(b1-4)Man(a1-6)]Man(b1-4)GlcNAc(b1-4)GlcNAc
# How it was run: as §1
# [31] = target: Neu5Ac(a2-3)Gal(b1-4)GlcNAc(b1-2)[Neu5Ac(a2-3)Gal(b1-4)GlcNAc(b1-6)]Man(a1-6)[Neu5Ac(a2-3)Gal(b1-4)GlcNAc(b1-2)Man(a1-3)]Man(b1-4)GlcNAc(b1-4)GlcNAc
# How it was run: as §1
# [32] = target: Neu5Ac(a2-3)Gal(b1-4)GlcNAc(b1-2)[Neu5Ac(a2-3)Gal(b1-4)GlcNAc(b1-6)]Man(a1-6)[Neu5Ac(a2-3)Gal(b1-4)GlcNAc(b1-2)Man(a1-3)][GlcNAc(b1-4)]Man(b1-4)GlcNAc(b1-4)GlcNAc
# How it was run: as §1
# [33] = target: Neu5Ac(a2-3)Gal(b1-4)GlcNAc(b1-3)Gal
# How it was run: as §1
# [34] = target: Neu5Ac(a2-3)Gal(b1-4)GlcNAc(b1-3)Gal(b1-3)GlcNAc
# How it was run: as §1
# [35] = target: Neu5Ac(a2-3)Gal(b1-4)GlcNAc(b1-3)Gal(b1-4)GlcNAc
# How it was run: as §1
# [36] = target: Neu5Ac(a2-3)Gal(b1-4)GlcNAc(b1-3)Gal(b1-4)GlcNAc(b1-2)Man(a1-3)[Neu5Ac(a2-3)Gal(b1-4)GlcNAc(b1-3)Gal(b1-4)GlcNAc(b1-2)Man(a1-6)]Man(b1-4)GlcNAc(b1-4)GlcNAc
# How it was run: as §1
# [37] = target: Neu5Ac(a2-3)Gal(b1-4)GlcNAc(b1-3)Gal(b1-4)GlcNAc(b1-3)Gal(b1-4)GlcNAc
# How it was run: as §1
# [38] = target: Neu5Ac(a2-3)Gal(b1-4)GlcNAc(b1-3)Gal(b1-4)GlcNAc(b1-3)Gal(b1-4)GlcNAc(b1-2)Man(a1-3)[Neu5Ac(a2-3)Gal(b1-4)GlcNAc(b1-3)Gal(b1-4)GlcNAc(b1-3)Gal(b1-4)GlcNAc(b1-2)Man(a1-6)]GalNAc
# How it was run: as §1
# [39] = target: Neu5Ac(a2-3)Gal(b1-4)GlcNAc(b1-3)Gal(b1-4)GlcNAc(b1-3)GalNAc
# How it was run: as §1
# [40] = target: Neu5Ac(a2-3)Gal(b1-4)GlcNAc(b1-3)Gal(b1-4)GlcNAc(b1-3)[Neu5Ac(a2-3)Gal(b1-4)GlcNAc(b1-3)Gal(b1-4)GlcNAc(b1-6)]GalNAc
# How it was run: as §1
# [41] = target: Neu5Ac(a2-3)Gal(b1-4)GlcNAc(b1-3)Gal(b1-4)GlcNAc(b1-6)[Gal(b1-3)]GalNAc
# How it was run: as §1
# [42] = target: Neu5Ac(a2-3)Gal(b1-4)GlcNAc(b1-3)Gal(b1-4)[Fuc(a1-3)]GlcNAc
# How it was run: as §1
# [43] = target: Neu5Ac(a2-3)Gal(b1-4)GlcNAc(b1-3)GalNAc
# How it was run: as §1
binder,measurement,setting,value
B1,glycan array binding signal (z-score),Neu5Ac(a2-3)Gal,-0.16
same,glycan array binding signal (z-score),[1],-0.088
same,glycan array binding signal (z-score),[2],-0.08
same,glycan array binding signal (z-score),[3],-0.327
same,glycan array binding signal (z-score),[4],0.075
same,glycan array binding signal (z-score),[5],-0.264
same,glycan array binding signal (z-score),[6],-0.28
same,glycan array binding signal (z-score),[7],-0.25
same,glycan array binding signal (z-score),[8],-0.394
same,glycan array binding signal (z-score),[9],-0.323
same,glycan array binding signal (z-score),[10],-0.312
same,glycan array binding signal (z-score),[11],-0.339
same,glycan array binding signal (z-score),[12],-0.371
same,glycan array binding signal (z-score),[13],0.022
same,glycan array binding signal (z-score),[14],-0.336
same,glycan array binding signal (z-score),[15],-0.41
same,glycan array binding signal (z-score),[16],-0.237
same,glycan array binding signal (z-score),[17],-0.181
same,glycan array binding signal (z-score),[18],-0.206
same,glycan array binding signal (z-score),[19],-0.303
same,glycan array binding signal (z-score),[20],-0.038
same,glycan array binding signal (z-score),[21],-0.338
same,glycan array binding signal (z-score),[22],-0.394
same,glycan array binding signal (z-score),Neu5Ac(a2-3)Gal(b1-4)Glc,-0.174
same,glycan array binding signal (z-score),[23],-0.115
same,glycan array binding signal (z-score),[24],0.518
same,glycan array binding signal (z-score),[25],-0.348
same,glycan array binding signal (z-score),[26],-0.184
same,glycan array binding signal (z-score),[27],0.122
same,glycan array binding signal (z-score),[28],-0.3
same,glycan array binding signal (z-score),[29],-0.169
same,glycan array binding signal (z-score),[30],-0.312
same,glycan array binding signal (z-score),[31],-0.15
same,glycan array binding signal (z-score),[32],-0.387
same,glycan array binding signal (z-score),[33],-0.282
same,glycan array binding signal (z-score),[34],-0.245
same,glycan array binding signal (z-score),[35],-0.267
same,glycan array binding signal (z-score),[36],0.252
same,glycan array binding signal (z-score),[37],-0.435
same,glycan array binding signal (z-score),[38],0.301
same,glycan array binding signal (z-score),[39],-0.372
same,glycan array binding signal (z-score),[40],-0.137
same,glycan array binding signal (z-score),[41],0.322
same,glycan array binding signal (z-score),[42],-0.306
same,glycan array binding signal (z-score),[43],-0.275
